No constants are given. Whether binding was seen depends on the method and setting. In cells and extracts the contact can be indirect. Some binding calls cover weakened binding; strength is not graded here. Where a sequence is shown, tags or fusion partners need not be part of it. Blank lines part the entries; values can stand above or below the binder they belong to.
Columns and labels:
GUS-cLUC, P05804 = test: split reporter; split luciferase complementation imaging (LCI): nLUC and cLUC fusions co-infiltrated by Agrobacterium GV3101 into N. benthamiana leaves, expressed 48 h, signal read by CCD; conditions: remark: other sources report otherwise
ZIP2-GFP (Arabidopsis) = target: T1, ZIP2-GFP (Arabidopsis) (UniProt Q9LTH9); test: co-IP; total protein of 10-day-old transgenic Arabidopsis seedlings in IP buffer (50 mM Tris HCl pH 7.6, 150 mM NaCl, 0.5% NP-40); anti-GFP agarose beads; blots with anti-FLAG and anti-GFP antibodies
T1 sequence: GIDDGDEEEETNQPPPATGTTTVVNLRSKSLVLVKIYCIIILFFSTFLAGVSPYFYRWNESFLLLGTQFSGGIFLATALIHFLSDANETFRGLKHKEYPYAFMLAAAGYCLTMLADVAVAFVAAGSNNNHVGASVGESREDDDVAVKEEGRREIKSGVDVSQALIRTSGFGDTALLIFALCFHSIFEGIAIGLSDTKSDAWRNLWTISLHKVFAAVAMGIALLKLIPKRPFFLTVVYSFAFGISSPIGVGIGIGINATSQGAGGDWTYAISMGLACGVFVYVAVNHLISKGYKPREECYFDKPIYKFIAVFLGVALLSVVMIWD

GUS-cYFP = GUS-cYFP (UniProt P05804); test: split reporter; BiFC: nYFP and cYFP fusions transiently co-expressed in N. benthamiana leaves with CBL1-OFP as plasma membrane marker; YFP fluorescence read 48 h after transfection
ZIP5-cYFP (Arabidopsis) = target: T2, ZIP5-cYFP (Arabidopsis) (UniProt O23039); test: as above
T2 sequence: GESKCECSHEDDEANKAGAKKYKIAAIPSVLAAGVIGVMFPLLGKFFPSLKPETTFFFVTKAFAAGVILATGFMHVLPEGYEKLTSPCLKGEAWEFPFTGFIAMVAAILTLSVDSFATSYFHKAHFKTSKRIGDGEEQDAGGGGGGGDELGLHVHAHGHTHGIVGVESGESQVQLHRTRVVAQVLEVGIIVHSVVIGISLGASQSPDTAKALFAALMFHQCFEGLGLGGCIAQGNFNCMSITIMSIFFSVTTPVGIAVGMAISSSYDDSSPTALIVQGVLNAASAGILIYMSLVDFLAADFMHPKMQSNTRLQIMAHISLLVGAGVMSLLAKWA

ZIP2-cYFP (Arabidopsis) = target: T3, ZIP2-cYFP (Arabidopsis) (UniProt Q9LTH9); test: as above
T3 sequence: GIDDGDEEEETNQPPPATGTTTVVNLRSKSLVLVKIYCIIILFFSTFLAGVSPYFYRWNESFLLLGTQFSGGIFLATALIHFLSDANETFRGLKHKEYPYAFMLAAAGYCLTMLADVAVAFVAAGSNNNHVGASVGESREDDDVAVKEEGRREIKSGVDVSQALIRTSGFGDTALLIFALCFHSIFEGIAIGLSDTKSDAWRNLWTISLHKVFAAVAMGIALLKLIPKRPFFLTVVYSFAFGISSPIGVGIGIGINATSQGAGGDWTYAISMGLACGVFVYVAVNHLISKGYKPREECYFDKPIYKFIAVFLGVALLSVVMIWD

ZIP2-cLUC (Arabidopsis) = target: T4, ZIP2-cLUC (Arabidopsis) (UniProt Q9LTH9); test: split reporter; split luciferase complementation imaging (LCI): nLUC and cLUC fusions co-infiltrated by Agrobacterium GV3101 into N. benthamiana leaves, expressed 48 h, signal read by CCD
T4 sequence: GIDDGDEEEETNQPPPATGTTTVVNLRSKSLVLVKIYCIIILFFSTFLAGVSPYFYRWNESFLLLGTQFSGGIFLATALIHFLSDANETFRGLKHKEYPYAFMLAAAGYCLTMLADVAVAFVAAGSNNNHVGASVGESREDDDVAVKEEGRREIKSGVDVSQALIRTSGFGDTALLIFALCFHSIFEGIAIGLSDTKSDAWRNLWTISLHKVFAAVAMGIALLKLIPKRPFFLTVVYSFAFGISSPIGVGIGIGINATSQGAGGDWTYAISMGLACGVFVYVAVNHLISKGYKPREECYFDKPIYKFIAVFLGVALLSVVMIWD

ZIP5-cLUC (Arabidopsis) = target: T5, ZIP5-cLUC (Arabidopsis) (UniProt O23039); test: as above
T5 sequence: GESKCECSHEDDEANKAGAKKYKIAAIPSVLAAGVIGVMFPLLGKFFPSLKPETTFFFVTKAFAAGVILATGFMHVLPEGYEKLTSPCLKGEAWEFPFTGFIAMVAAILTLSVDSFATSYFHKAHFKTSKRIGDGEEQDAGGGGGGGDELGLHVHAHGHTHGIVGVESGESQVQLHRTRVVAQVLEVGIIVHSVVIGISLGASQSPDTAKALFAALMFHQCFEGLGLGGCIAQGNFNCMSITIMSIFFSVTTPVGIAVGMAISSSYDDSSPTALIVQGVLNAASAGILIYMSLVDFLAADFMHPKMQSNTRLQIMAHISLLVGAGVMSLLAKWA

GUS-cLUC = GUS-cLUC (UniProt P05804); test: as above

- binding (GUS-cLUC, P05804): no binding
B1: GUS-nLUC, P05804 1-603 (protein)
chain: MLRPVETPTREIKKLDGLWAFSLDRENCGIDQRWWESALQESRAIAVPGSFNDQFADADIRNYAGNVWYQREVFIPKGWAGQRIVLRFDAVTHYGKVWVNNQEVMEHQGGYTPFEADVTPYVIAGKSVRITVCVNNELNWQTIPPGMVITDENGKKKQSYFHDFFNYAGIHRSVMLYTTPNTWVDDITVVTHVAQDCNHASVDWQVVANGDVSVELRDADQQVVATGQGTSGTLQVVNPHLWQPGEGYLYELCVTAKSQTECDIYPLRVGIRSVAVKGEQFLINHKPFYFTGFGRHEDADLRGKGFDNVLMVHDHALMDWIGANSYRTSHYPYAEEMLDWADEHGIVVIDETAAVGFNLSLGIGFEAGNKPKELYSEEAVNGETQQAHLQAIKELIARDKNHPSVVMWSIANEPDTRPQGAREYFAPLAEATRKLDPTRPITCVNVMFCDAHTDTISDLFDVLCLNRYYGWYVQSGDLETAEKVLEKELLAWQEKLHQPIIITEYGVDTLAGLHSMYTDMWSEEYQCAWLDMYHRVFDRVSAVVGEQVWNFADFATSQGILRVGGNKKGIFTRDRKPKSAAFLLQKRWTGMNFGEKPQQGGKQ

- binding (ZIP2-GFP (Arabidopsis)): binds
B2: CIPK26-FLAG (protein, UniProt Q84VQ3 1-439)
chain: MNRPKVQRRVGKYEVGKTLGQGTFAKVRCAVNTETGERVALKILDKEKVLKHKMAEQIRREICTMKLINHPNVVRLYEVLASKTKIYIVLEFGTGGELFDKIVHDGRLKEENARKYFQQLINAVDYCHSRGVYHRDLKPENLLLDAQGNLKVSDFGLSALSRQVRGDGLLHTACGTPNYAAPEVLNDQGYDGATADLWSCGVILFVLLAGYLPFEDSNLMTLYKKIIAGEYHCPPWLSPGAKNLIVRILDPNPMTRITIPEVLGDAWFKKNYKPAVFEEKEEANLDDVDAVFKDSEEHHVTEKKEEQPTSMNAFELISMSRALDLGNLFEEEEGFKRETRFAAKGAANDLVQKIEEASKPLGFDIQKKNYKMRLENVTAGRKGNLRVATEIFQVSPSLHMIEVRKTKGDTLEFHKFYKKLSTSLNDVVWKSGESSGLSK

- binding (GUS-cYFP): no binding
- binding (ZIP5-cYFP (Arabidopsis)): no binding
- binding (ZIP2-cYFP (Arabidopsis)): binds
B3: CIPK26-nYFP (protein, UniProt Q84VQ3 1-439)
chain: MNRPKVQRRVGKYEVGKTLGQGTFAKVRCAVNTETGERVALKILDKEKVLKHKMAEQIRREICTMKLINHPNVVRLYEVLASKTKIYIVLEFGTGGELFDKIVHDGRLKEENARKYFQQLINAVDYCHSRGVYHRDLKPENLLLDAQGNLKVSDFGLSALSRQVRGDGLLHTACGTPNYAAPEVLNDQGYDGATADLWSCGVILFVLLAGYLPFEDSNLMTLYKKIIAGEYHCPPWLSPGAKNLIVRILDPNPMTRITIPEVLGDAWFKKNYKPAVFEEKEEANLDDVDAVFKDSEEHHVTEKKEEQPTSMNAFELISMSRALDLGNLFEEEEGFKRETRFAAKGAANDLVQKIEEASKPLGFDIQKKNYKMRLENVTAGRKGNLRVATEIFQVSPSLHMIEVRKTKGDTLEFHKFYKKLSTSLNDVVWKSGESSGLSK

- binding (ZIP2-cLUC (Arabidopsis)): binds
- binding (ZIP5-cLUC (Arabidopsis)): no binding
- binding (GUS-cLUC): no binding
B4: CIPK26-nLUC (protein, UniProt Q84VQ3 1-439)
chain: MNRPKVQRRVGKYEVGKTLGQGTFAKVRCAVNTETGERVALKILDKEKVLKHKMAEQIRREICTMKLINHPNVVRLYEVLASKTKIYIVLEFGTGGELFDKIVHDGRLKEENARKYFQQLINAVDYCHSRGVYHRDLKPENLLLDAQGNLKVSDFGLSALSRQVRGDGLLHTACGTPNYAAPEVLNDQGYDGATADLWSCGVILFVLLAGYLPFEDSNLMTLYKKIIAGEYHCPPWLSPGAKNLIVRILDPNPMTRITIPEVLGDAWFKKNYKPAVFEEKEEANLDDVDAVFKDSEEHHVTEKKEEQPTSMNAFELISMSRALDLGNLFEEEEGFKRETRFAAKGAANDLVQKIEEASKPLGFDIQKKNYKMRLENVTAGRKGNLRVATEIFQVSPSLHMIEVRKTKGDTLEFHKFYKKLSTSLNDVVWKSGESSGLSK

Reference: publication PMC12756210
